Each structure is given as a SMILES string. About 65 (0.1%) of roughly 45,000 compounds were called active. Calls come from the whole dose curve; as a rule, active = well fitted activation curve with a large enough effect; inconclusive = small, poorly fitted or top-dose-only effect; inactive = no such curve, though single readings can be large or run the other way. Some of the results follow.

The results in this text go back to PubChem BioAssay AID1159614 (National Center for Advancing Translational Sciences (NCATS), 2016).

The assay deals with Galactocerebrosidase (Homo sapiens) (UniProt P54803). Nature of the assay: A Novel Cell-Based Assay to Identify Small Molecules for B -Galactocerebrosidase. Note: 0% is about no effect; nearly all actives have a fitted effect of over 65% in size. The conditions noted are these: 145M-Twi-hGALC-G270D cells (Twitcher mouse brain line with human GALC G270D), HMU-beta-Gal fluorescence, 48 h; series mostly up to 57.5 µM; activation: at the top concentration. In outline: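 Mutant human GALC (G270D), stably expressed in a Twitcher mouse brain cell line lacking endogenous GALC, is measured in live-treated cells via 6-hexadecanoylamino-4-methylumbelliferyl-β-galactoside hydrolysis (0.1 mM final, pH 5.2) with fluorescent detection.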
Sequence of UniProt P54803 (P54803 whole entry, looked up): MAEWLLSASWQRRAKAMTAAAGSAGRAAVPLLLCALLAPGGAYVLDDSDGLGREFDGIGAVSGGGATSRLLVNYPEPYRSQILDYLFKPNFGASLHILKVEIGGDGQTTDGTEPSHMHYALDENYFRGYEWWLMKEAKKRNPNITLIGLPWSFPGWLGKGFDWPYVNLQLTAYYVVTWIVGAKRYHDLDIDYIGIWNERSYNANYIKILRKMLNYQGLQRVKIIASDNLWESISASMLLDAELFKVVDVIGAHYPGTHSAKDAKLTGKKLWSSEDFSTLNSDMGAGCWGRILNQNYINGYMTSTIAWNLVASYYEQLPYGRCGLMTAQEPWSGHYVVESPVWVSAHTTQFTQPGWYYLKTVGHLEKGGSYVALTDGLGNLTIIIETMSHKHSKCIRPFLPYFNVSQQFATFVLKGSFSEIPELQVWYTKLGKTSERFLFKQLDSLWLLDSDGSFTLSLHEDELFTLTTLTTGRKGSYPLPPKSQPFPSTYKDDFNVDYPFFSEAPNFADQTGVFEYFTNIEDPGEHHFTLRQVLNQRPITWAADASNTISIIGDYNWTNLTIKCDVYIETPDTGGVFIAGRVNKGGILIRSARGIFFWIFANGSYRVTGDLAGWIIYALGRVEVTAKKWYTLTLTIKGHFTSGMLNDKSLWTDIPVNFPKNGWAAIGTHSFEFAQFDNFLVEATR
As to `COc1ccc2c(Sc3ccccc3)c(C(=O)NCc3ccc(OC(C)C)cc3)[nH]c2c1`, the “activation” value was inactive: -7.35%.
To `COc1ccc(-c2nc3ccc(NS(=O)(=O)c4ccccc4)cc3o2)cc1` belongs inactive: 1.74%; to `COc1cccc(CNC(=O)c2cc3n(n2)CCCN(Cc2ccc(C)cc2)C3=O)c1OC`, inactive: -10.3%; to `CCOc1ccc(NC(=O)c2c(NC(=O)Cc3ccccc3)sc3c2CCCC3)cc1`, inactive: -0.451%.
In the case of `CCN(Cc1ccccc1)C(=O)Cn1c(=O)n(-c2ccc(OC)cc2OC)c(=O)c2c(C)c(C)sc21`, the “activation” value is inactive: -9.56%.
With `CCOc1ccc(CNC(=O)c2ccc(-c3nc(CSc4ccc(C)cc4)c(C)o3)cc2)cc1` the figure was inactive: -7.16%; with `COc1ccc(Cl)cc1NC(=O)Cn1c(=O)n(Cc2ccco2)c(=O)c2ccc(C(=O)NC3CCCC3)cc21`, inactive: -20.3%; with `Cc1ccc(NC(=O)c2sc(-n3nc(C)c(Cc4ccc(Cl)cc4)c3C)nc2C)cc1`, inactive: -0.685%.
To `Cc1ccc(-n2c3nc(=O)[nH]c(=O)c-3cc3c(Cl)cccc32)cc1` belongs inactive: -13.3%; to `Cc1ccc(Cn2ccnc2SCC(=O)Nc2ccc3c(c2)OCO3)cc1`, inactive: -5.66%; to `Cc1ccc(C)c(NC(=O)N2CCN(C)c3ncccc32)c1`, inactive: -27.7%.
With `CC(=O)N1CCOc2cc(S(=O)(=O)NCc3ccc(C)cc3)c(Cl)cc21` the figure was inactive: 13.6%.
Regarding `O=C(/C=C\c1ccc2c(c1)OCO2)NC1CC(=O)N(c2ccc(Cl)cc2)C1` (stereo not drawn), the “activation” value is inactive: -10.8%.
To `COc1ccc(C2(Nc3cccc(C(=O)O)c3C)C(=O)c3ccccc3C2=O)cc1` belongs inactive: -14.9%; to `Cc1ccc(NC(=O)C2CCN(S(=O)(=O)c3c(C)noc3C)CC2)c(C)c1`, inactive: -15.5%; to `COc1ccc(-c2csc3nc(-c4ccccc4C)oc(=O)c23)cc1OC`, inactive: 3.78%.
To `CCOC(=O)c1c(C)oc2ncnc(N3CCN(c4ccccc4F)CC3)c12` belongs inactive: -13.2%; to `O=C(Cc1cccs1)NC1CC(=O)N(c2cccc(F)c2)C1` (stereo not drawn), inactive: -6.04%; to `COc1ccc(NC(=O)CSc2oc(-c3cccs3)nc2S(=O)(=O)c2ccc(C)cc2)c(OC)c1`, inactive: -22.9%.
With `CCOc1ccccc1NC(=O)c1cc(=O)c2ccc(C)cc2o1` the figure was inactive: -11.4%; with `CCSc1nc(-c2ccccc2OC)nc2c1Cc1c(CO)cnc(C)c1O2`, inactive: -11.2%.
In the case of `Cc1ccc2c(CN3CCN(C(=O)c4ccc(F)cc4)CC3)cc(=O)oc2c1`, the “activation” value was inactive: -8.4%.
With `Cc1ccc(OCC(=O)N(c2ccc(C)cc2)S(=O)(=O)c2ccc(Cl)cc2)cc1` the figure was inactive: -10.9%.
`Cn1c(=O)n(C)c2cc(NS(=O)(=O)c3ccc(F)cc3)ccc21`: the “activation” value was inactive: -9.05%.
`COc1cccc(C(=O)Nc2ccc3nc(SCC(=O)N4CCOCC4)sc3c2)c1`: the “activation” value is inactive: -15.9%.
Regarding `Cc1cc(C)n2c(Nc3ccc(Cl)cc3)c(-c3ccsc3)nc2n1`, the “activation” value was inactive: -7.64%.
Take `CCCCS(=O)(=O)c1oc(-c2cccs2)nc1S(=O)(=O)c1ccccc1`: the “activation” value was inactive: -13.3%.
In the case of `COc1cc2nc(NCCC(C)C)n3nc(-c4ccccc4)nc3c2cc1OC`, the “activation” value is inactive: -7.34%.
With `COc1ccccc1CNC(=O)CN1C(=O)COc2ccc(S(=O)(=O)Nc3ccccc3)cc21` the figure was inactive: -10.9%; with `COc1ccc(C2CC(=O)NC(NC(=O)c3ccc(Br)cc3)=N2)c(OC)c1OC` (stereo not drawn), inactive: -6.97%; with `CSCCC(NS(=O)(=O)c1ccc2c(c1)oc(=O)n2C)C(=O)N1CCN(c2cc(C)ccc2C)CC1` (stereo not drawn), inactive: -33%.
Consider `CC(C)(C)c1ccc(C(=O)NCCc2csc3nc(-c4ccccc4F)nn23)cc1`, for which the “activation” value was inactive: 3.13%.
With `CCc1c2c(nc3ccc(OC(=O)N4CCC(N5CCCCC5)CC4)cc13)-c1cc3c(c(=O)n1C2)COC(=O)[C@]3(O)CC` the figure was inactive: -5.07%; with `CCOc1ccccc1NC(=O)CSc1nc(=O)[nH]c2c1CCCC2`, inactive: -33.6%; with `O=C(CS(=O)(=O)c1cccc2nsnc12)Nc1ccccc1`, inactive: -12.2%.
With `O=S(=O)(Nc1ccccc1C(F)(F)F)c1ccc(N2CCCCS2(=O)=O)cc1` the figure was inactive: 19.9%; with `CCCOc1cccc(NC(=O)c2c(-c3ccccc3Cl)noc2C)c1`, inactive: -20.9%.
To `COc1cc(/C=C/c2nc(C#N)c(N3CCCCCC3)o2)cc(OC)c1OC` belongs inactive: -29.6%; to `COc1ccc(OC)c(NC(=O)Cn2cnc3ccc(S(=O)(=O)N4CCC(C)CC4)cc3c2=O)c1`, inactive: -18.1%.
With `O=C(Nc1cc(-c2nc3ccccc3s2)ccc1Cl)c1cc2ccccc2o1`, the “activation” value was inactive: 0.024%.
With `CN(Cc1ccccc1)C(=O)c1ccc2c(c1)N(Cc1ccccc1F)C(=O)c1ccccc1S2(=O)=O` the figure was inactive: 7.7%; with `Cc1ccc(-c2nc3sc(CCNS(=O)(=O)c4cc(F)ccc4F)c(C)n3n2)cc1`, inactive: -4.37%; with `Cc1ccc(Cl)cc1-n1c(=O)cc(N2CCN(c3ccc(F)cc3)CC2)[nH]c1=O`, inactive: -15.9%.
`Cc1cc(C)c2oc(C(=O)Nc3ccc(S(=O)(=O)N4CCCCC4)cc3)cc(=O)c2c1`: the “activation” value was inactive: -0.335%.
To `CC(=O)N(Cc1cccnc1)c1nc2c(F)cc(F)cc2s1` belongs inactive: -11.7%.
Regarding `Cc1cccc(C)c1NC(=O)Cn1c(=O)n(Cc2ccccc2)c(=O)c2c(C)c(C(=O)N(C)C)sc21`, the “activation” value is inactive: -4.71%.
With `COc1ccc(Cl)cc1NS(=O)(=O)c1ccc2[nH]c3c(c2c1)CCCC3` the figure was inactive: -4.78%; with `Cn1c(=O)c2c(-c3ccc(Cl)cc3)n(Cc3ccccc3)cc2n(C)c1=O`, inactive: -38.8%.
